From the supplement of paper PMC11417369
± gives the standard deviation of the averaged measurements. The list shows a part of the results.

Test system: PfAP2-LT AP2 domain (GST-tagged)
Assay: gcPBM binding intensity (ln(normalized median fluorescence intensity)); higher = stronger DNA binding
Summary of the method: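 Alexa488 anti-GST antibody, scanned at 488 nm, detected GST-tagged P. falciparum DNA-binding domains that had been expressed in E. coli and incubated for 1 h on an Agilent 4 × 180k array. The array carried primer-extended double-stranded 36-bp intergenic genomic probes and negative controls. Binding intensity is the highest Masliner-normalised natural-log median intensity across replicate spots of either orientation of each probe.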

How did the “gcPBM binding intensity (ln)” value turn out when “AATATAAATAATATATGTACATATATATATATATAT [XGTACX_site1021]” was run?
The value was 9.47 ± 0.071.

“TTTGTATATATTAATGTACACACATGCGTATGTTCG [CACACA_site9193]” was tested. Which “gcPBM binding intensity (ln)” value did it give?
Its value is 9.36 ± 0.39.

How did the “gcPBM binding intensity (ln)” value turn out when “AATATAGATATAAAAAGTACATTATATATATATATA [XGTACX_site6899]” was run?
The value was 9.14 ± 0.25.

How did the “gcPBM binding intensity (ln)” value turn out when “ATGACTCTCAAGTTTGCACACATTTATATTTTTTAA [CACACA_site2605]” was run?
The value was 9.13 ± 0.33.

For “TATACATACCATAATGCATGTAAGAACAAATAACTG [TGCATGCA_site264]”, which “gcPBM binding intensity (ln)” value is on record?
Its value is 8.85 ± 0.42.

Which “gcPBM binding intensity (ln)” value does the source give for “AAAAAAAAAAAAAAGGTGCATACTTTGAATTAATAT [GTGCAC_site9401]” here?
Its value is 8.61 ± 0.54.

How did the “gcPBM binding intensity (ln)” value turn out when “ACAAAATTTACAAAATGTACAAAATTTACAAAGTAT [XGTACX_site6463]” was run?
Its value is 8.79 ± 0.43.

“GTATATCATATTTCATGTACACAAAAAAATAAAAAT [XGTACX_site704]” was tested. Which “gcPBM binding intensity (ln)” value did it give?
Its value is 8.91 ± 0.44.

“TATATATATTATATATGTACATATTATATATATATA [XGTACX_site7300]” was tested. Which “gcPBM binding intensity (ln)” value did it give?
Its value is 8.6 ± 0.35.

Which “gcPBM binding intensity (ln)” value does the source give for “ATATATTTGATAAGAGTGCACAAATACATACATACA [GTGCAC_site9704]” here?
Its value is 9.14 ± 0.31.

Which “gcPBM binding intensity (ln)” value does the source give for TTTAAAATACAGAAGGTGCATTTAACATATTTGTAT here?
The value was 8.59 ± 0.4.

Which “gcPBM binding intensity (ln)” value does the source give for “TATATATATAAACACACACACATATATATATATATA [CACACA_site4584]” here?
The value was 9.94 ± 0.14.

How did the “gcPBM binding intensity (ln)” value turn out when “AAAAAAAAAAAATGCACACATATATTTCCATATACA [CACACA_site1471]” was run?
The value was 8.95 ± 0.36.

How did the “gcPBM binding intensity (ln)” value turn out when “ATATATATATATATATGTACTAATTAATATTTCGAG [XGTACX_site580]” was run?
Its value is 9.47 ± 0.028.

For “ATAAAATAATGAAAAACACACATTTTTATTTGTATA [CACACA_site3369]”, which “gcPBM binding intensity (ln)” value is on record?
The value was 8.69 ± 0.42.

How did the “gcPBM binding intensity (ln)” value turn out when “ATATATATATATGAATCACACACAAAAAATATAGAG [CACACA_site9298]” was run?
The value was 9.39 ± 0.26.

With “AATAACATGTTATATACACACATTATGAAGTCTTCA [CACACA_site746]” as the sequence, how does the “gcPBM binding intensity (ln)” value read?
Its value is 9.02 ± 0.35.

“AAGATTATAAATATATGTACATAAATATATTATATA [XGTACX_site8056]” was tested. Which “gcPBM binding intensity (ln)” value did it give?
Its value is 8.62 ± 0.52.

How did the “gcPBM binding intensity (ln)” value turn out when “ATTGTTTTTTTTTCTTTGTGGAATGAATGAATATAT [XGTACX_negctrl_site603]” was run?
The value was 8.71 ± 0.41.

“TTTTTTTTTTCAATGGCACACATTTTAGATTTATGC [CACACA_site1074]” was tested. Which “gcPBM binding intensity (ln)” value did it give?
The value was 8.88 ± 0.45.

How did the “gcPBM binding intensity (ln)” value turn out when GTTTTAACAAAATTAGTGCATTTATCAATTATATAA was run?
Its value is 8.32 ± 0.46.

With “ATAATACTACCTACATGTACTTATATATAAATGAAT [XGTACX_site3417]” as the sequence, how does the “gcPBM binding intensity (ln)” value read?
Its value is 9.1 ± 0.34.

How did the “gcPBM binding intensity (ln)” value turn out when AAAGAATCAAGAATAGTGCAAATATGTATAACCTTT was run?
Its value is 9.01 ± 0.51.

How did the “gcPBM binding intensity (ln)” value turn out when “ACATCAAGCGGACACACACACACACCGACAGACACA [CACACA_site4361]” was run?
Its value is 10.2 ± 0.33.

How did the “gcPBM binding intensity (ln)” value turn out when “AAAATACATAAACGTTCACACATTGAAGATCACAAG [CACACA_site5347]” was run?
The value was 9.1 ± 0.45.

TAGGTACATAAATTGGTGCAAAGTGTACATATATAT was tested. Which “gcPBM binding intensity (ln)” value did it give?
The value was 9.14 ± 0.47.

“AATTTTAATTATATCACACATAATATATACCAAAAA [CACACA_site6011]” was tested. Which “gcPBM binding intensity (ln)” value did it give?
The value was 8.54 ± 0.38.

“AAAAAAAAAAGACACACACACACACGGAGATATATA [CACACA_site6216]” was tested. Which “gcPBM binding intensity (ln)” value did it give?
Its value is 10.4 ± 0.19.

Which “gcPBM binding intensity (ln)” value does the source give for “TTTAATACTTTTTTCTGTACACACTTGATTTACTAT [XGTACX_site5925]” here?
The value was 9.11 ± 0.39.

“TACATATTTTTATATACACACAATAATTACTATAAA [CACACA_site6879]” was tested. Which “gcPBM binding intensity (ln)” value did it give?
Its value is 8.64 ± 0.38.

For “CAAAATATAAAAACATGTACATAAATATTAACGAAT [XGTACX_site2380]”, which “gcPBM binding intensity (ln)” value is on record?
The value was 9.12 ± 0.36.

Which “gcPBM binding intensity (ln)” value does the source give for “TCATCCACATATTGTAGTACAAGATAATTGTTTATT [XGTACX_site1634]” here?
Its value is 8.76 ± 0.42.

“ATATGTTTATTAAATGCATGTCAAGACTTAAGATAT [TGCATGCA_site329]” was tested. Which “gcPBM binding intensity (ln)” value did it give?
Its value is 8.79 ± 0.42.

How did the “gcPBM binding intensity (ln)” value turn out when AAAAATACAATTTTCTTGCACTTTGTTGCATTGTAA was run?
Its value is 8.88 ± 0.45.

With “AACATATACACGAACACACACACATATAAATAAATA [CACACA_site6380]” as the sequence, how does the “gcPBM binding intensity (ln)” value read?
Its value is 9.87 ± 0.23.

“CAAAAAATGAAACACACACACACACCCATAAATAAA [CACACA_site1231]” was tested. Which “gcPBM binding intensity (ln)” value did it give?
The value was 10.12 ± 0.035.

How did the “gcPBM binding intensity (ln)” value turn out when TCATATATAAAAAGGGTGCTTTTAAAAGAATGGATT was run?
The value was 8.7 ± 0.51.

Which “gcPBM binding intensity (ln)” value does the source give for “AATATTTTTTGTTTTACACACATATATAGATATATA [CACACA_site7662]” here?
The value was 9.01 ± 0.28.

Which “gcPBM binding intensity (ln)” value does the source give for “CAGATATTTGTTCATATACACACTTTTGATAAAATA [CACACA_site1219]” here?
Its value is 8.76 ± 0.38.

How did the “gcPBM binding intensity (ln)” value turn out when “TTTTTTGGGTAAAATTATAAAATATGTATATATAAA [CACACA_negctrl_site27]” was run?
The value was 8.07 ± 0.48.

“TTTTTTTTTGTATTTTCACACATTTTTTTTTTTTTT [CACACA_site5407]” was tested. Which “gcPBM binding intensity (ln)” value did it give?
Its value is 8.79 ± 0.67.

How did the “gcPBM binding intensity (ln)” value turn out when “TTATTTAAACAAATCACACACAAATATATATACATA [CACACA_site2019]” was run?
The value was 9.05 ± 0.33.

How did the “gcPBM binding intensity (ln)” value turn out when “ATATGCATAAAAAGAGGTACACATAAAATATATATA [XGTACX_site5864]” was run?
Its value is 9.06 ± 0.53.

For “TATACACATATATAAAGTACATATATGTGTAAAAAA [XGTACX_site8582]”, which “gcPBM binding intensity (ln)” value is on record?
Its value is 8.99 ± 0.44.

“TCTTCCGCTTTATGGAGTACTATGGTAGCCTTTCCT [XGTACX_site2958]” was tested. Which “gcPBM binding intensity (ln)” value did it give?
The value was 8.71 ± 0.54.

Which “gcPBM binding intensity (ln)” value does the source give for “GACCTACAAAAAGGCACACATATACGCATACATACA [CACACA_site2179]” here?
The value was 9.14 ± 0.4.

With “CATATTTTCAAAATTAGTACATAAAAAAAAAAATAT [XGTACX_site3101]” as the sequence, how does the “gcPBM binding intensity (ln)” value read?
The value was 8.62 ± 0.42.

Which “gcPBM binding intensity (ln)” value does the source give for “TATAATCATATATACACACACATATATATATATATA [CACACA_site2168]” here?
The value was 9.805 ± 0.05.

For “TAAATTTGTGTTATTAAAAAAATGGTTTAAAAATGT [XGTACX_negctrl_site352]”, which “gcPBM binding intensity (ln)” value is on record?
Its value is 8.38 ± 0.42.

How did the “gcPBM binding intensity (ln)” value turn out when “TCTTTTTCATCTTTCAACAAAAAATAATATATGTGT [CACACA_negctrl_site866]” was run?
The value was 8.66 ± 0.55.

For “TTAGTCCATATTTTTGCACACCATTTTTTTTTTTTT [CACACA_site3927]”, which “gcPBM binding intensity (ln)” value is on record?
Its value is 9.15 ± 0.56.

With “AGAATAAATATGCACACATGCATATATTTTTACACT [TGCATGCA_site893]” as the sequence, how does the “gcPBM binding intensity (ln)” value read?
Its value is 9.01 ± 0.32.

With “ATCCTTAATATGAACACACAAATATATTGCACATAT [CACACA_site6230]” as the sequence, how does the “gcPBM binding intensity (ln)” value read?
The value was 9.18 ± 0.39.

Which “gcPBM binding intensity (ln)” value does the source give for “ATATATTTATATTGTACACACATTTATGCATATATA [CACACA_site7502]” here?
The value was 9.21 ± 0.35.

Which “gcPBM binding intensity (ln)” value does the source give for “AAATATACAATATTCACACAAAAAAATACATTACAA [CACACA_site5004]” here?
The value was 8.92 ± 0.48.

With “TTTCTTACAAAAGCTAGAGTTTTTTTTTTTTTTTTT [XGTACX_negctrl_site341]” as the sequence, how does the “gcPBM binding intensity (ln)” value read?
Its value is 8.4 ± 0.14.

For “TGTTTTTATAAAATAAATAAATATATATATATATAT [CACACA_negctrl_site502]”, which “gcPBM binding intensity (ln)” value is on record?
Its value is 8.71 ± 0.33.

“ATAAACAAACATAAATCTGATTTTAATTTTTTTAAG [CACACA_negctrl_site313]” was tested. Which “gcPBM binding intensity (ln)” value did it give?
The value was 8.26 ± 0.48.
